The list shows a part of the results. Further columns of the screen follow, without active or inactive calls. Most of these compounds were active or inconclusive in the main read-out, so they are no random draw. Potencies come from curve fits of mixed quality, noted in brackets.

What is called AC50 is the concentration at which the activity in the assay is half-maximal.
Tags tell the direction and shape of the fitted curve.

A short description of this assay: qHTS Assay for Lipid Storage Modulators (AID 1519). The conditions noted are these: Drosophila S3 cells, BODIPY lipid droplet/cell ratio, laser cytometry; measured here: cell number channel AC50; cells loaded with oleic acid. The gist of the method: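 Cells seeded at 5,000 per well were treated with compounds over a concentration series and loaded with oleic acid (400 uM, as added). Lipid droplet fluorescence (488 nm excitation, 500-530 nm channel) was read by laser-scanning cytometry and normalized to 20 uM Triacsin C.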
For orientation: qHTS replaces the single test concentration by a dilution series.
Consider `COc1cccc(-c2nc(NCc3cccs3)c3ccccc3n2)c1`, for which the AC50 was 398 nM [rising, full curve].

Regarding `COc1ccc(CNc2cc(-c3cccnc3)ncn2)c(OC)c1`, the AC50 was 1260 nM [rising, full curve, poor fit]. In the case of `CN(C)c1ccc(-c2cncnc2NCCc2cnc[nH]2)cc1` it was 708 nM [rising, full curve]; in that of `NC[C@@H]1O[C@H](c2ccccc2)Cc2c1ccc(O)c2O`, 6310 nM [rising, full curve]; in that of `O=c1c(O)c(-c2cccc(O)c2)oc2ccccc12`, 4470 nM [rising, full curve]. In the case of `CCNc1ncc2nc(C)c(=O)n(Cc3cccc(OC)c3)c2n1` it was 178 nM [rising, full curve, poor fit]; in that of `COc1ccc(-n2c(=O)c(-c3ccc(F)cc3)nc3cncnc32)cc1`, 8910 nM [rising, partial curve].

On to `CN(C)c1ccc(-c2cncnc2Nc2ccccc2)cc1`, for which the AC50 was 1580 nM [rising, full curve].

Consider `COc1ncc2nc(CCc3ccccc3)c(=O)n(-c3ccccc3)c2n1`, for which the AC50 was 2820 nM [rising, full curve]. With `Cc1ccccc1-c1nccc(NCc2cccnc2)n1`, the AC50 was 501 nM [rising, full curve, poor fit]. For `N#CCCn1c(=O)c(CCc2ccccc2)nc2cnc(OCc3ccccc3)nc21` the value was 1410 nM [rising, full curve]. For `CNc1ncncc1-c1ccccc1C(F)(F)F` the value was 1000 nM [rising, partial curve]. For the compound `O=c1c(-c2cccs2)nc2cncnc2n1-c1ccccc1`, the half-maximal activity concentration (AC50) was 14100 nM [rising, single point]. In the case of `COC(=O)C1=C(C)NC(C)=C(C(=O)OCCSc2ccccc2)[C@@H]1C`, the AC50 is 1260 nM [rising, full curve]. Take `COCCn1c(=O)c(-c2ccc(F)cc2)nc2cnc(N(C)C)nc21`: the half-maximal activity concentration (AC50) is 3160 nM [rising, full curve, poor fit]. `COc1cc2c(cc1OC)C(=O)Cc1ccc3c(c1CN(C)CC2)OCO3`: the concentration at half-maximal activity (AC50) is 14100 nM [rising, partial curve, poor fit]. Take `c1cncc(-c2nc(-n3ccnc3)c3ccccc3n2)c1`: the AC50 is 708 nM [rising, full curve, poor fit].

Consider `Oc1ccc(/C=C\c2cc(O)cc(O)c2)cc1`, for which the AC50 was 11200 nM [rising, full curve, poor fit]. Regarding `COc1cccc(-c2ccc3ncnc(N(C)C)c3c2)c1`, the AC50 is 1120 nM [rising, partial curve].

Turning to `COc1cc2ccc(=O)oc2c(O)c1OCC=C(C)C`, the AC50 was 35500 nM [rising, partial curve]. In the case of `O=c1c(-c2cc(F)cc(F)c2)nc2cncnc2n1Cc1ccccc1Cl` it was 2000 nM [rising, full curve, poor fit]. In the case of `Cc1ccccc1-c1nccc(Nc2ccc(F)cc2)n1` it was 3980 nM [rising, partial curve]; in that of `CC#CCOC(=O)C1=CCCN(C)C1`, 15800 nM [rising, single point]; in that of `COc1ccc(-c2cc(=O)c3cc(OC)ccc3o2)cc1`, 5620 nM [rising, partial curve, poor fit]. For `C=C(CO)C1Cc2c(ccc3c2OC2COc4cc(OC)c(OC)cc4C2C3=O)O1` (stereo not given), the concentration at half-maximal activity (AC50) was 501 nM [rising, full curve]. In the case of `Clc1ccccc1-c1nc(NCCN2CCOCC2)c2ccccc2n1` it was 14100 nM [rising, partial curve, poor fit]; in that of `c1ccc(-c2csc(-c3nc4ccccc4[nH]3)n2)cc1`, 251 nM [rising, full curve]; in that of `CCc1ccc2c(-c3cccc(Cl)c3)nc(=O)n(CC)c2n1`, 224 nM [rising, full curve].

Regarding `O=C(O)c1cccnc1C(=O)O`, the concentration at half-maximal activity (AC50) is 8910 nM [falling, partial curve]. For the compound `CN(C)C(=O)c1ccc(-c2cncnc2-n2ccnc2)cc1`, the AC50 is 10000 nM [rising, partial curve]. On to `O=c1c(-c2ccc(Cl)cc2)nc2cnc(Nc3ccccc3)nc2n1C[C@H]1CCCO1`, for which the AC50 is 708 nM [falling, full curve]. Take `COc1ccccc1N1CCN(CCN2C(=O)CC3(CCCC3)CC2=O)CC1`: the concentration at half-maximal activity (AC50) is 15800 nM [rising, partial curve, poor fit]. For `Fc1ccc(Nc2nc(-c3ccoc3)nc3ccccc23)cc1` the value was 794 nM [rising, full curve, poor fit]; for `COc1ccccc1-c1nc(N2CCOCC2)c2ccccc2n1`, 1000 nM [rising, full curve, poor fit]; for `CC[N+](CC)(CC)CC(=O)Nc1c(C)cccc1C`, 31600 nM [rising, partial curve, poor fit]. In the case of `c1ccc(Nc2nc(-c3ccoc3)nc3ccccc23)cc1` it was 7.94 nM [rising, full curve, poor fit]; in that of `CC(C(=O)O)c1ccc2c(c1)[nH]c1ccc(Cl)cc12` (stereo not given), 17800 nM [rising, partial curve, poor fit]; in that of `CN(C)C/C=C(\c1ccc(Br)cc1)c1cccnc1`, 11200 nM [rising, partial curve, poor fit]. In the case of `N#CCCn1c(=O)c(CCc2ccccc2)nc2cnc(Oc3ccccc3)nc21` it was 316 nM [rising, full curve, poor fit]. `CN(C)c1ccc(-c2nccc(NCc3cccs3)n2)cc1`: the half-maximal activity concentration (AC50) is 39800 nM [falling, single point].

The values are drawn from PubChem BioAssay (NCATS).
